The list shows a part of the results. Most values come without repeats; read them as rough.
The molecules below were run on UACC257 (assay: cell count relative to DMSO control; melanoma cells; higher = more viable cells). Conditions: library dose: low library concentration; 72 h.
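Note: cell number obtained by counting DAPI-stained nuclei in high-throughput microscope images with image analysis software, screen run in 1,536-well plates.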

SMILES	cell count
Nc1cccc2c1CN(C1CCC(=O)NC1=O)C2=O (stereo not given) [lenalidomide] + N#Cc1c(O)c2c(-c3ccc(-c4ccccc4O)cc3)csc2[nH]c1=O [A769662] (first compound 1 µM, partner dose 2 µM)	92.1%
COCC[n+]1c2c(n(Cc3cnccn3)c1C)C(=O)c1ccccc1C2=O + CCCCCCCCCCCC1=C(O)C(=O)C=C(O)C1=O [Embelin] (first compound 0.0004 µM, partner dose 1.2 µM)	102%
Cn1c(Nc2ccc(C(F)(F)F)cc2)nc2cc(Oc3ccnc(-c4ncc(C(F)(F)F)[nH]4)c3)ccc21 + Cc1cc([N+](=O)[O-])ccc1NS(=O)(=O)c1cc(Cl)ccc1Cl [FH535] (first compound 0.08 µM, partner dose 1 µM)	34.2%
COCC[n+]1c2c(n(Cc3cnccn3)c1C)C(=O)c1ccccc1C2=O + COc1ccc2c(c1)CCC1C2CCC2(C)C(NCCCCCCN3C(=O)C=CC3=O)CCC12 [U73122] (first compound 0.0004 µM, partner dose 0.4 µM)	96.6%
Nc1cccc2c1CN(C1CCC(=O)NC1=O)C2=O (stereo not given) [lenalidomide] + CCCCCCCCCCCC1=C(O)C(=O)C=C(O)C1=O [Embelin] (first compound 1 µM, partner dose 1.2 µM)	102%
O=C(CCCCCCC(=O)Nc1ccccc1)NO [vorinostat] + c1cc(-c2cnn3cc(-c4ccc(OCCN5CCCCC5)cc4)cnc23)ccn1 [Dorsomorphin] (first compound 0.08 µM, partner dose 0.4 µM)	89.6%

These molecules were tested on UACC62 in the same assay as above. Conditions: library dose: low library concentration; 72 h.

SMILES	cell count
Cn1c(Nc2ccc(C(F)(F)F)cc2)nc2cc(Oc3ccnc(-c4ncc(C(F)(F)F)[nH]4)c3)ccc21 + CCCCCCCCCCCC1=C(O)C(=O)C=C(O)C1=O [Embelin] (first compound 0.08 µM, partner dose 1.2 µM)	54.4%
O=C(CCCCCCC(=O)Nc1ccccc1)NO [vorinostat] + O=C(O)C(=O)Nc1sc2c(c1C(=O)O)CCNC2 [TCS401] (first compound 0.08 µM, partner dose 1.66667 µM)	72.5%
O=C(CCCCCCC(=O)Nc1ccccc1)NO [vorinostat] + CCc1ccc(CCOc2ccc(CC3SC(=O)NC3=O)cc2)nc1 [pioglitazone] (first compound 0.08 µM, partner dose 2 µM)	109%
C#Cc1cccc(Nc2ncnc3cc(OCCOC)c(OCCOC)cc23)c1 [erlotinib] + O=C(Nc1ccccc1)c1cc([N+](=O)[O-])ccc1Cl [GW9662] (first compound 0.8 µM, partner dose 2 µM)	88.3%
C#Cc1cccc(Nc2ncnc3cc(OCCOC)c(OCCOC)cc23)c1 [erlotinib] + Oc1nc(-c2ccc(C(F)(F)F)cc2)nc2c1CSCC2 [XAV939] (first compound 0.8 µM, partner dose 2 µM)	88.1%
COCC[n+]1c2c(n(Cc3cnccn3)c1C)C(=O)c1ccccc1C2=O + CCc1ccc(CCOc2ccc(CC3SC(=O)NC3=O)cc2)nc1 [pioglitazone] (first compound 0.0004 µM, partner dose 2 µM)	79.6%
Cn1c(Nc2ccc(C(F)(F)F)cc2)nc2cc(Oc3ccnc(-c4ncc(C(F)(F)F)[nH]4)c3)ccc21 + N#Cc1c(O)c2c(-c3ccc(-c4ccccc4O)cc3)csc2[nH]c1=O [A769662] (first compound 0.08 µM, partner dose 2 µM)	43.1%
O=C(CCCCCCC(=O)Nc1ccccc1)NO [vorinostat] + COc1ccc(-c2ccc3c(N4CCOCC4)nc(N4C[C@@H](C)O[C@@H](C)C4)nc3n2)cc1CO [KU0063794] (first compound 0.08 µM, partner dose 0.02 µM)	101%
C#Cc1cccc(Nc2ncnc3cc(OCCOC)c(OCCOC)cc23)c1 [erlotinib] + N#Cc1c(O)c2c(-c3ccc(-c4ccccc4O)cc3)csc2[nH]c1=O [A769662] (first compound 0.8 µM, partner dose 2 µM)	83.7%
COCC[n+]1c2c(n(Cc3cnccn3)c1C)C(=O)c1ccccc1C2=O + COC(=O)c1sccc1S(=O)(=O)Nc1ccc(Nc2ccccc2)cc1OC [GSK0660] (first compound 0.0004 µM, partner dose 1 µM)	83.3%
COCC[n+]1c2c(n(Cc3cnccn3)c1C)C(=O)c1ccccc1C2=O + Cn1cc(/C=C2\C(=O)Nc3cccnc32)c2ccccc21 [GW441756] (first compound 0.0004 µM, partner dose 0.4 µM)	105%
Cn1c(Nc2ccc(C(F)(F)F)cc2)nc2cc(Oc3ccnc(-c4ncc(C(F)(F)F)[nH]4)c3)ccc21 + CCc1ccc(CCOc2ccc(CC3SC(=O)NC3=O)cc2)nc1 [pioglitazone] (first compound 0.08 µM, partner dose 2 µM)	48.4%
COCC[n+]1c2c(n(Cc3cnccn3)c1C)C(=O)c1ccccc1C2=O + CC(C)CCN1c2nc(Nc3cc(F)c(O)c(F)c3)ncc2N(C)C(=O)C1C [BID1870] (first compound 0.0004 µM, partner dose 0.2 µM)	86.2%
O=C(CCCCCCC(=O)Nc1ccccc1)NO [vorinostat] + CC(C)CCN1c2nc(Nc3cc(F)c(O)c(F)c3)ncc2N(C)C(=O)C1C [BID1870] (first compound 0.08 µM, partner dose 0.2 µM)	76.5%
C#Cc1cccc(Nc2ncnc3cc(OCCOC)c(OCCOC)cc23)c1 [erlotinib] + O=C(O)C(=O)Nc1sc2c(c1C(=O)O)CCNC2 [TCS401] (first compound 0.8 µM, partner dose 1.66667 µM)	108%
C#Cc1cccc(Nc2ncnc3cc(OCCOC)c(OCCOC)cc23)c1 [erlotinib] + COc1ccc2c(c1)CCC1C2CCC2(C)C(NCCCCCCN3C(=O)C=CC3=O)CCC12 [U73122] (first compound 0.8 µM, partner dose 0.4 µM)	78.5%
C#Cc1cccc(Nc2ncnc3cc(OCCOC)c(OCCOC)cc23)c1 [erlotinib] + Cc1cc([N+](=O)[O-])ccc1NS(=O)(=O)c1cc(Cl)ccc1Cl [FH535] (first compound 0.8 µM, partner dose 1 µM)	92%
COCC[n+]1c2c(n(Cc3cnccn3)c1C)C(=O)c1ccccc1C2=O + COc1cc2ncnc(Nc3ccc(Oc4ccccc4)cc3)c2cc1OC [SrcI1] (first compound 0.0004 µM, partner dose 2 µM)	99.7%
Nc1cccc2c1CN(C1CCC(=O)NC1=O)C2=O (stereo not given) [lenalidomide] + O=c1cc(-c2cccc3c2Sc2ccccc2S3)oc(N2CCOCC2)c1 [KU55933] (first compound 1 µM, partner dose 1 µM)	105%
Nc1cccc2c1CN(C1CCC(=O)NC1=O)C2=O (stereo not given) [lenalidomide] + COc1ccc(-c2ccc3c(N4CCOCC4)nc(N4C[C@@H](C)O[C@@H](C)C4)nc3n2)cc1CO [KU0063794] (first compound 1 µM, partner dose 0.02 µM)	90.7%
Nc1cccc2c1CN(C1CCC(=O)NC1=O)C2=O (stereo not given) [lenalidomide] + Cc1cc([N+](=O)[O-])ccc1NS(=O)(=O)c1cc(Cl)ccc1Cl [FH535] (first compound 1 µM, partner dose 1 µM)	91.2%
Nc1cccc2c1CN(C1CCC(=O)NC1=O)C2=O (stereo not given) [lenalidomide] + COc1cc2ncnc(Nc3ccc(Oc4ccccc4)cc3)c2cc1OC [SrcI1] (first compound 1 µM, partner dose 2 µM)	98.8%
Cn1c(Nc2ccc(C(F)(F)F)cc2)nc2cc(Oc3ccnc(-c4ncc(C(F)(F)F)[nH]4)c3)ccc21 + COc1ccc2c(c1)CCC1C2CCC2(C)C(NCCCCCCN3C(=O)C=CC3=O)CCC12 [U73122] (first compound 0.08 µM, partner dose 0.4 µM)	43.6%
Cn1c(Nc2ccc(C(F)(F)F)cc2)nc2cc(Oc3ccnc(-c4ncc(C(F)(F)F)[nH]4)c3)ccc21 + O=C(O)C(=O)Nc1sc2c(c1C(=O)O)CCNC2 [TCS401] (first compound 0.08 µM, partner dose 1.66667 µM)	49.3%
O=C(CCCCCCC(=O)Nc1ccccc1)NO [vorinostat] + Oc1cc(-c2nc(-c3ccccc3)[nH]c2-c2ccncc2)ccc1Cl [L779450] (first compound 0.08 µM, partner dose 0.2 µM)	75.3%
O=C(CCCCCCC(=O)Nc1ccccc1)NO [vorinostat] + O=C1NC(=O)/C(=C/c2ccc(-c3ccc(F)cc3O)o2)S1 [AS252424] (first compound 0.08 µM, partner dose 1 µM)	82.9%
COCC[n+]1c2c(n(Cc3cnccn3)c1C)C(=O)c1ccccc1C2=O + Oc1nc(-c2ccc(C(F)(F)F)cc2)nc2c1CSCC2 [XAV939] (first compound 0.0004 µM, partner dose 2 µM)	84%
C#Cc1cccc(Nc2ncnc3cc(OCCOC)c(OCCOC)cc23)c1 [erlotinib] + CCN(CC)CCCCNc1ncc2cc(-c3cc(OC)cc(OC)c3)c(NC(=O)NC(C)(C)C)nc2n1 [PD173074] (first compound 0.8 µM, partner dose 0.1 µM)	102%
COCC[n+]1c2c(n(Cc3cnccn3)c1C)C(=O)c1ccccc1C2=O + c1cc(-c2cnn3cc(-c4ccc(OCCN5CCCCC5)cc4)cnc23)ccn1 [Dorsomorphin] (first compound 0.0004 µM, partner dose 0.4 µM)	75.6%

Reference: the supplement of paper PMC4604168 (melanoma cell lines)
